According to paper PMC6919601, “Identification of Plasmodium dipeptidyl aminopeptidase allosteric inhibitors by high throughput screening” (PLoS ONE, 2019):
The whole screen tested about 110,000 compounds, of which about 230 (0.21%) showed an effect of 50% or more. The list shows a part of the results.

Target: DPAP1 (Plasmodium falciparum, UniProt Q8IIJ9)
Test: primary screen, percent inhibition; read by cleavage of a fluorogenic dipeptide substrate; higher = more effect of the substance
Set-up: species or system P. falciparum D10 trophozoite lysates; single well
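Further: 30 min substrate incubation versus DMSO and 10 µM JCP410 controls.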

Chain of DPAP1 (Q8IIJ9 whole entry, looked up): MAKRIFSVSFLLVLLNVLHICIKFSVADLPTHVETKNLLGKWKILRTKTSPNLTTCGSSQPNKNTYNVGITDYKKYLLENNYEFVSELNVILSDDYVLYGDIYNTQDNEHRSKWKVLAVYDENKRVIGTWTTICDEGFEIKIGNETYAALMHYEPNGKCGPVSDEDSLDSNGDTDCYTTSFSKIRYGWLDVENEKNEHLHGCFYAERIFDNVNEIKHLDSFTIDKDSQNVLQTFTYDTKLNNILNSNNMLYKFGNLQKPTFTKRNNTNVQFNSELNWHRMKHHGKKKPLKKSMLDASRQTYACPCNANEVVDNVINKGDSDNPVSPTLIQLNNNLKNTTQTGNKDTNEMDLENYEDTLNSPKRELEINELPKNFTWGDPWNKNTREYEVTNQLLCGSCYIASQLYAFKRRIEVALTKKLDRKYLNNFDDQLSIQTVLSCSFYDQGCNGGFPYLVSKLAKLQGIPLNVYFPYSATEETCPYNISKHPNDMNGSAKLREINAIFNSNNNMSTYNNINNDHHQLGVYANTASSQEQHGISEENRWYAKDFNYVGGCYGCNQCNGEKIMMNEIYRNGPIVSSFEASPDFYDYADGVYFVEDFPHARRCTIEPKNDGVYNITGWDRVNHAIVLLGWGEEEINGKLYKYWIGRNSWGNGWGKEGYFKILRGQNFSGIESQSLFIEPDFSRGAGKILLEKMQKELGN

Structure (SMILES)	% Inhibition @ 10 uM [%]
Cc1ccnc(NC(=O)CN2C(=O)CSc3ncccc32)c1	-0.637
CCc1c(C)sc(N)c1C(=O)NCc1cccnc1	2.08
Nc1cccc2ccc(S(=O)(=O)NCCO)cc12	-8.28
CNS(=O)(=O)c1cn(CC(=O)N2CCCCCC2)cc1S(=O)(=O)NC	-5.51
O=C1OC(c2ccc(Cl)cc2Cl)=N/C1=C\c1ccccc1F	0.434
COc1ccc(N2CCN(CC(O)COc3cccc(OC)c3)CC2)cc1 (stereo not drawn)	-0.185
N#C/C(=C\c1c(Oc2ccc(Br)cc2)nc2ccccn2c1=O)C(=O)N1CCCCC1	7.65
CN(CC(=O)NCCc1ccc(Cl)cc1)S(=O)(=O)c1cc(Br)cnc1N	-1.72
CN(C(=O)COc1ccc(-c2nn(C)c(=O)c3ccccc23)cc1)C1CCCCC1	1.79
CCN1C(=O)C(=CNc2ccccc2Br)C(=O)N(CC)C1=O	-1.06
CCOC(=O)N1CCN(c2c(N3CCC(N4CCCCC4)CC3)c(=O)c2=O)CC1	-3.21
CCOC(=O)c1sc(-c2ccc(OC)cc2)cc1NC(C)=O	4.6
CCOC(=O)c1sc(NC(=O)c2ccc(Br)o2)c(C(=O)OCC)c1C	3.67
CCOC(=O)N1CCN(CC(O)COc2cc(C)ccc2C(C)C)CC1 (stereo not drawn)	14.3
Cc1cccc(NC(=O)c2sc(Cl)nc2C)c1C	-0.884
COc1cc(-c2nnc3sc(Cc4ccc(Cl)cc4)nn23)cc(OC)c1OC	32.2
CN(C)c1ccc2c(c1)OC(N)=C(C#N)C2c1coc2ccccc2c1=O (stereo not drawn)	-1.64
O=C(CCCc1nnc2n3nc(-c4ccccc4)nc3c3ccccc3n12)NCC1CCCO1 (stereo not drawn)	2.04
COc1cc(/C=C2\C(=N)N3N=C(N4CCOCC4)SC3=NC2=O)ccc1OCc1ccccc1	-1.66
O=C(Nc1ccc(F)cc1F)C(c1ccccc1)c1ccccc1	0.467
Cc1ccc2c(CNCc3ccc4c(c3)OCO4)c(C(=O)O)n(Cc3ccc(F)cc3Cl)c2c1	9.8
COCCNC(=O)Cn1nc(C)n2c(cc3sccc32)c1=O	-1.58
COc1ccccc1C(=O)Nc1ccc(-c2cn3ccccc3n2)cc1	6.61
Cc1nn(Cc2cccc(C(=O)O)c2)c(C)c1Cl	-4.67
CCN1CCCC1CNC(=O)c1cc(C)nc2c1c(C)nn2-c1ccc(C)cc1 (stereo not drawn)	-4.97
N#CC1=C(N)SC(N)=C(C#N)C1c1cccc([N+](=O)[O-])c1	26.3

Structure (SMILES)	% Inhibition @ 10 uM [%]
CSc1nc2c(c(=O)n1C1CCCCC1)C1(CCCCC1)Cc1ccccc1-2	-1.69
COc1ccc(C(C)NC(=O)CSCc2cccc(Br)c2)cc1 (stereo not drawn)	-3.52
CC(NC(=O)CN(C1CCCCC1)S(C)(=O)=O)c1ccccc1 (stereo not drawn)	9.17
Cc1ccc2c(c1)-c1c(cnn1CC(=O)NC(C)c1ccccc1)CO2 (stereo not drawn)	4.33
COc1cccc(/C=c2\sc3nnc(-c4ccccc4)n3c2=O)c1OC	-1.81
O=[N+]([O-])c1ccc2nc(/C=C(\O)c3ccc(Cl)cc3)c(/C=C(\O)c3ccc(Cl)cc3)nc2c1	0.774
CC1=Nc2ncnn2C(c2ccccc2C)/C1=C(/O)OCc1ccccc1 (stereo not drawn)	-0.326
CCN(CC)CCNC(=O)CCNC(=O)c1cc(OC)c(OC)c(OC)c1	-0.519
COc1ccc(CCN2C(=O)CSC2c2ccc3cccc(O)c3n2)cc1OC (stereo not drawn)	-3.95
CCCCNc1nc(Oc2ccc(=O)n(C)n2)nc(N(CC)CC)n1	-5.33
CC(C)C[C@H](NC(=O)c1ccc(N2CCOCC2)cc1)C(=O)NC1(C#N)CCC1	-12
Nc1nonc1C(=O)NCCNCc1ccc(Br)cc1	-1.71
Cc1cc(C)n2nc(SCC(=O)NC3CCCCC3)nc2n1	2.9
CC(C)c1ccc(-c2nc(-c3ccccc3)c(-c3ccccc3)[nH]2)cc1	-4.32
Cc1nn(CC(=O)N(C)Cc2ccccc2)c(=O)c2cc3sccc3n12	0.137
CC(C)NC(=O)C(=O)NCc1ccc(Cl)cc1Cl	2.94
CCOC(=O)c1c(C)[nH]c(C)c1S(=O)(=O)NCc1ccc(OC)cc1	1.4
COc1ccc(CN2C(=O)NC(=O)/C(=C\c3ccc(O)c(O)c3)C2=O)cc1	-2.39
CCOc1cc(/C=C/c2ccccc2OC)cc(=O)c2c(C)oc(C)c12	1.81
COc1ccc(/C=C2/C(=O)N=C3SCCN32)cc1	8.62
CCOc1ccc(C(=O)Nc2cccc(C)c2)cc1	-3.45
O=C(O)c1cccc(CSc2nnc(COc3ccccc3)o2)c1	-0.183
Cc1ccc2c(c1)C1(C(=O)N2C)N2CC3(C)CN1CC(C)(C2)C3=O (stereo not drawn)	-0.267
CC1CCCC(NCc2c(C(=O)O)n(C)c3ccccc23)C1C (stereo not drawn)	-3.21
O=C(CCn1cnnn1)n1nnc2ccccc21	4.57
Cc1cccc(C(=O)NC2(C(F)(F)F)C(=O)Nc3c2c(=O)[nH]c(=O)n3-c2ccccc2)c1 (stereo not drawn)	-2.67

Structure (SMILES)	% Inhibition @ 10 uM [%]
CCOC(=O)c1cc(S(=O)(=O)N2CC(C)CC(C)C2)cn1C (stereo not drawn)	-1.06
COCCNC(=O)CCCc1nnc2n3nc(-c4ccccc4)nc3c3ccccc3n12	2.04
c1ccc(OCCN2CCCCC2)cc1	2.76
COc1ccc(Cn2c(SCc3ccc(C(=O)NCC4CCCO4)cc3)nc3cccnc32)cc1 (stereo not drawn)	9.89
CCOC(=O)c1oc2c(c1C)-c1nn(CC)cc1CC2	-1.75
COc1ccc(C(=O)NCc2ccccc2)c(OC)c1	-3.37
CCCCNC(=O)c1c(NC(=O)c2ccccc2)sc(C)c1C	-0.0648
Cc1ccc(-c2cc(NC(=O)c3ccccc3C)on2)cc1	1.9
O=C(NC(Cc1ccccc1)C(=O)O)/C(=C\c1ccco1)NC(=O)c1ccccc1Br (stereo not drawn)	-3.75
Cc1cccc(C)c1NC(=O)Cc1ccccc1	-7.42
COc1ccc(OC)c(NC(=O)Cc2cccc3ccccc23)c1	2.79
CCCC(=O)Nc1c2c(nc3ccccc13)N(c1ccccc1)CC2	-0.13
CCN(CC)S(=O)(=O)N1CCC(C(=O)NCc2ccco2)CC1	-4.06
O=C(c1ccc2nc(N3CCCCC3)sc2c1)N1CCN(c2ccccn2)CC1	1.03
O=C(O)CCNc1cc(Cl)ccc1Oc1ccc(Cl)cc1	1.42
C#Cc1cccc(NC(=O)c2cccs2)c1	-0.267
CC(C)C[C@H](NC(=O)c1ccco1)C(=O)NCC#N	0.174
CC(NC(=O)c1ccccc1F)C(c1cccs1)N1CCOCC1 (stereo not drawn)	7.05
O=C(O)c1cc(S(=O)(=O)N2CCOCC2)ccc1F	-2.22
Nc1n[nH]c(C(=O)NCc2ccccc2)n1	-2.36
Cn1c(=O)c2c(nc3n(CC(O)c4ccccc4)c(-c4ccccc4)cn23)n(C)c1=O (stereo not drawn)	2.67
O=Cc1[nH]c2ccccc2c1Cl	0.231
CCOCCCNCc1c(C(=O)O)n(Cc2ccccc2)c2cc(OC)ccc12	-2.68
Cc1cccc(-c2noc(CN(C)S(=O)(=O)c3ccccc3)n2)c1	-4.54
Cc1nonc1NC(=O)Nc1ccncc1	-1.86
CC1CCCCN1CCNC(=O)C1c2ccccc2C(=O)N(C)C1c1cccs1 (stereo not drawn)	-1.19

Structure (SMILES)	% Inhibition @ 10 uM [%]
CC12CN3CN(C1)CC(c1ccccc1)(C3)C2=O	-0.216
CC(C)(C)NC(=O)C(=O)NCc1cccnc1	-1.6
Cc1ccc2c(cnn2C(=O)CCC(=O)NC(C)c2ccccc2)c1 (stereo not drawn)	-8.57
CCOC(=O)c1c(NC(=O)c2cc(-c3ccccc3OC)on2)sc2c1CCCC2	-3.44
Cn1c2ccccc2c2nnc(SCC(=O)NC3=NN=C(c4ccccc4)CS3)nc21	-2.4
S=C(c1ccc(-c2ccc(Cl)cc2Cl)o1)N1CCCCC1	-1.29
COc1cc2c(cc1OC)C(C(=O)O)C(c1cn(C)c3ccccc13)N(C)C2=O (stereo not drawn)	0.974
O=C1CC(c2ccc3c(c2)OCO3)C2=C(CCCC2=O)N1 (stereo not drawn)	1.16
Cc1ccccc1C1CC(c2ccc(Br)cc2)Nc2nnnn21 (stereo not drawn)	0.0842
C1CCCC(NCC2CCCO2)CC1 (stereo not drawn)	1.36
O=C1C=C(N2CCCC2)C(=O)N1c1ccc(Cl)cc1	-4.67
COCCNC(=O)c1c(NC(=O)c2ccccc2C)sc2c1CCCC2	0.83
Cc1ccc(OCCSc2nnc3n(C)c4ccccc4n23)cc1	-3.74
Cc1cc(=O)n2ncn(Cc3ccccc3)c2n1	1.26
COc1cnn(-c2ccccc2)c(=O)c1OC	-1.84
C=CCc1ccccc1OCc1nc2ccccc2n1C	-1.15
Cc1cccc(-c2nc3n(n2)C(c2ccc(O)cc2)C2=C(O)CC(C)(C)CC2=N3)c1 (stereo not drawn)	3.59
CNC(=O)CCCn1nc(C)c2c(C)n(-c3ccc(C)cc3)nc2c1=O	3.99
O=C(Nc1cnn(Cc2c(Cl)cccc2Cl)c1)c1ccc2c(c1)OCO2	-1.04
Cc1ccccc1Cn1c(=O)c2c(ncn2Cc2ccccc2)n(C)c1=O	1.86
O=C(NCc1ccc2c(c1)OCO2)c1cncc(NS(=O)(=O)c2ccc(Cl)cc2)c1	-6.04
COc1ccc(C(=O)O)cc1S(=O)(=O)NCc1cccnc1	-7.33
CCOc1ccc(C2NC(=O)c3[nH]nc(C)c32)cc1 (stereo not drawn)	-13.4
CCOc1ccc(S(=O)(=O)N2CCN(c3cccc(Cl)c3)CC2)c2ccccc12	0.528
